Here are results for 5 compounds from publication PMC9545476, “Structure‐guided engineering of key amino acids in UGT85B1 controlling substrate and stereo‐specificity in aromatic cyanogenic glucoside biosynthesis” (The Plant Journal, 2022).

One experiment deals with T1, PdUGT85A19 (Prunus dulcis, UniProt B2XBQ5).
T1 construct: gene UGT85A19
To be noted: 600 uM UDP-glucose, pH 7.5, 30 C.

A further experiment concerns the target EcUGT85A59 (Eucalyptus cladocalyx, UniProt A0A3G2LJ70). Conditions: UDP-glucose.
For experiment [1], the target named is T2, SbUGT85B1 (Sorghum bicolor, UniProt Q9SBL1).
T2 construct: gene UGT85B1
Conditions: 600 uM UDP-glucose, pH 7.5, 30 C.

The target of experiment [2] is T2, SbUGT85B1. To be noted: with UDP; racemate added to crystals; sugar acceptor site.
Setting [3] is: 600 uM racemic p-hydroxymandelonitrile, product taxiphyllin.

Molecules are shown by their SMILES. Read-outs that look alike come from different tables or passages of the source.

T2 sequence (Q9SBL1 whole entry, looked up): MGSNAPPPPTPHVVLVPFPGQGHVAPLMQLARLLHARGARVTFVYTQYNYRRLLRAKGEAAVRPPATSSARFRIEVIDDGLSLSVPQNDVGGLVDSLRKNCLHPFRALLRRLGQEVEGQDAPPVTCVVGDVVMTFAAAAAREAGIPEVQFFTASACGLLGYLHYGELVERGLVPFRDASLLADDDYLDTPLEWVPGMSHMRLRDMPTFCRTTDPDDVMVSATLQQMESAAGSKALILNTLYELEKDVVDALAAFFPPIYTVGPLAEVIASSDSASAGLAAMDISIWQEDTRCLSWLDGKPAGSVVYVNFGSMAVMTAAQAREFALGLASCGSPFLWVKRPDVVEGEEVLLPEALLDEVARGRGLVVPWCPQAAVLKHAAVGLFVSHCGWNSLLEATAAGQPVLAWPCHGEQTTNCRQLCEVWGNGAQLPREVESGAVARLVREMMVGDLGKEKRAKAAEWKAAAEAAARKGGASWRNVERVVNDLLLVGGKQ
T1 sequence (B2XBQ5 whole entry, looked up): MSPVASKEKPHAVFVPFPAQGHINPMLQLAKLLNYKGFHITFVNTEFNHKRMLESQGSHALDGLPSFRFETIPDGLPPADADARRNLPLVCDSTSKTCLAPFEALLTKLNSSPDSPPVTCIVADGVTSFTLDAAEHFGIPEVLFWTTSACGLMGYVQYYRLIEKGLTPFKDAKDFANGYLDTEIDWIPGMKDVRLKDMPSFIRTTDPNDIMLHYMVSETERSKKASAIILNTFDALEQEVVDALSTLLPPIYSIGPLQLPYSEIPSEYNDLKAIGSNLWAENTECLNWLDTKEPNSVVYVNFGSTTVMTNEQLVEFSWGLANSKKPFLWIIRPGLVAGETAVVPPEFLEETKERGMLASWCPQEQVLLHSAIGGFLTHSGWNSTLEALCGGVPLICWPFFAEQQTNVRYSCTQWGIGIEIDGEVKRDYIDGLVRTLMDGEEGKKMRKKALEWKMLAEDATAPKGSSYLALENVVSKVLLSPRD

As for `N#C[C@H](O)c1ccc(O)cc1` (mixture of isomers), the “LC-MS/MS of glucoside product” value at PdUGT85A19 (setting [3]) is listed as “catalyze the formation of taxiphyllin by utilizing (R)‐p‐hydroxymandelonitrile as substrate”.

Regarding `N#C[C@H](O)c1ccccc1` (mixture of isomers) [(R)-mandelonitrile], the “LC-MS/MS of glucoside product” value at EcUGT85A59 (racemic mandelonitrile, product prunasin) was “EcUGT85A59 displayed a preference for (R)‐mandelonitrile”; at PdUGT85A19 (600 uM racemic mandelonitrile, product prunasin), “as demonstrated by production of prunasin and taxiphyllin”.

Regarding `N#C[C@H](O)c1ccc(O)cc1` (mixture of isomers) [(R)-p-hydroxymandelonitrile], the “LC-MS/MS of glucoside product” value at SbUGT85B1 [1] (setting [3]) was “also able to catalyze the conversion of the (R)‐isomer into taxiphyllin”; on EcUGT85A59 (racemic p-hydroxymandelonitrile, product taxiphyllin) it was “EcUGT85A59 is able to convert p‐hydroxymandelonitrile into taxiphyllin”.

Turning to `N#C[C@@H](O)c1ccccc1` (mixture of isomers) [(S)-mandelonitrile], the “LC-MS/MS of glucoside product” value on SbUGT85B1 [1] (600 uM racemic mandelonitrile, product sambunigrin) was “able to catalyze glucosylation of mandelonitrile mainly resulting in sambunigrin”.

For `N#C[C@@H](O)c1ccc(O)cc1` [(S)-p-hydroxymandelonitrile], at SbUGT85B1 [2], the “X-ray crystal structure (1.50 A)” value is on record as “clearly indicates the bound p‐hydroxymandelonitrile to be in the (S)‐configuration”.
